Results reported in the supplement of paper PMC4604168 (melanoma cell lines).
Some of the results follow. Many values rest on one well or one pass, so single values are uncertain.

The molecules below were run on WM1716 (assay: cell count relative to DMSO control; melanoma cells; higher = more viable cells). Conditions: library dose: standard library concentration; 72 h; first compound 2 µM.
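Further: cells treated in 1,536-well plates, then fixed and DAPI-stained, with nuclei counted from automated high-throughput microscope images.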

SMILES | cell count [%]
C[C@@H](N)c1ccc(C(=O)Nc2ccnc3[nH]ccc23)cc1 + CO[C@@H]1[C@H](N(C)C(=O)c2ccccc2)C[C@H]2O[C@]1(C)n1c3ccccc3c3c4c(c5c6ccccc6n2c5c31)C(=O)NC4 [Midostaurin] (partner dose 0.4 µM) | 34.8
Cn1sc(=O)n(Cc2ccccc2)c1=O + Nc1cccc2c1CN(C1CCC(=O)NC1=O)C2=O [lenalidomide] (partner dose 5 µM) | 92.1
Cn1sc(=O)n(Cc2ccccc2)c1=O + COc1cc2c(Oc3ccc4[nH]c(C)cc4c3F)ncnc2cc1OCCCN1CCCC1 [cediranib] (partner dose 2 µM) | 96.3
C[C@@H](N)c1ccc(C(=O)Nc2ccnc3[nH]ccc23)cc1 + Cn1sc(=O)n(Cc2ccccc2)c1=O [TDZD-8] (partner dose 2 µM) | 11
C[C@@H](N)c1ccc(C(=O)Nc2ccnc3[nH]ccc23)cc1 + CC(C)C[C@H](NC(=O)[C@H](Cc1ccccc1)NC(=O)c1cnccn1)B(O)O [Bortezomib] (partner dose 0.005 µM) | 13.9
CCCCCCCCCCCCCCCCCCOP(=O)([O-])OC1CC[N+](C)(C)CC1 [Perifosine] + C#Cc1cccc(Nc2ncnc3cc(OCCOC)c(OCCOC)cc23)c1 [erlotinib] (partner dose 4 µM) | 89.9
Cn1sc(=O)n(Cc2ccccc2)c1=O + CNC(=O)c1cc(Oc2ccc(NC(=O)Nc3ccc(Cl)c(C(F)(F)F)c3)cc2)ccn1 [sorafenib] (partner dose 2 µM) | 114
CCCCCCCCCCCCCCCCCCOP(=O)([O-])OC1CC[N+](C)(C)CC1 [Perifosine] + C[C@]1(c2nc3c(C(N)=O)cccc3[nH]2)CCCN1 [Veliparib] (partner dose 7 µM) | 90.8
Cn1sc(=O)n(Cc2ccccc2)c1=O + Cc1cc(Nc2cc(N3CCN(C)CC3)nc(/C=C/c3ccccc3)n2)n[nH]1 [ENMD2076] (partner dose 0.2 µM) | 95.9
CCCCCCCCCCCCCCCCCCOP(=O)([O-])OC1CC[N+](C)(C)CC1 [Perifosine] + COc1ccc(C2=N[C@@H](c3ccc(Cl)cc3)[C@@H](c3ccc(Cl)cc3)N2C(=O)N2CCNC(=O)C2)c(OC(C)C)c1 [Nutlin-3] (partner dose 0.5 µM) | 66.5
Cn1sc(=O)n(Cc2ccccc2)c1=O + Cn1c(=O)n(-c2ccc(C(C)(C)C#N)cc2)c2c3cc(-c4cnc5ccccc5c4)ccc3ncc21 [NVP-BEZ235] (partner dose 0.02 µM) | 68.8
C[C@@H](N)c1ccc(C(=O)Nc2ccnc3[nH]ccc23)cc1 + Nc1nc(F)nc2c1ncn2[C@@H]1O[C@H](CO)[C@@H](O)[C@@H]1O [fludarabine] (partner dose 1 µM) | 61.7
C[C@@H](N)c1ccc(C(=O)Nc2ccnc3[nH]ccc23)cc1 + O=C(Nc1cccc(Cl)c1)Nc1ncc(CCNc2ncnc3ccsc23)s1 [SNS314] (partner dose 0.004 µM) | 33
Cn1sc(=O)n(Cc2ccccc2)c1=O + O=C(O)c1ccc2c(c1)nc(Nc1cccc(Cl)c1)c1ccncc12 [CX4945] (partner dose 2 µM) | 83
Cn1sc(=O)n(Cc2ccccc2)c1=O + COc1ccc(Cl)c(Nc2nc3ccccc3nc2NS(=O)(=O)c2cccc(NC(=O)C(C)(C)N)c2)c1 [XL147] (partner dose 4 µM) | 91.3
CCCCCCCCCCCCCCCCCCOP(=O)([O-])OC1CC[N+](C)(C)CC1 [Perifosine] + Cn1nnc2c(C(N)=O)ncn2c1=O [temozolomide] (partner dose 10 µM) | 59.2
CCCCCCCCCCCCCCCCCCOP(=O)([O-])OC1CC[N+](C)(C)CC1 [Perifosine] + Clc1ccc(Nc2nnc(Cc3ccncc3)c3ccccc23)cc1 [vatalanib] (partner dose 10 µM) | 98.2
C[C@@H](N)c1ccc(C(=O)Nc2ccnc3[nH]ccc23)cc1 + COc1cc(Nc2ncc(F)c(Nc3ccc4c(n3)NC(=O)C(C)(C)O4)n2)cc(OC)c1OC [Tamatinib] (partner dose 2 µM) | 31.9
C[C@@H](N)c1ccc(C(=O)Nc2ccnc3[nH]ccc23)cc1 + COc1cc2c(Oc3ccc4[nH]c(C)cc4c3F)ncnc2cc1OCCCN1CCCC1 [cediranib] (partner dose 2 µM) | 35.3
